Measured values reported in the supplement of paper PMC3334620.
Over roughly 33,000 sequences, “E-score (-0.5 to 0.5)” has its median near -0.054; the highest 2% begin near 0.35. Some of the results follow.

Biological target: T1, Stb5 (UniProt P38699)
T1 sequence: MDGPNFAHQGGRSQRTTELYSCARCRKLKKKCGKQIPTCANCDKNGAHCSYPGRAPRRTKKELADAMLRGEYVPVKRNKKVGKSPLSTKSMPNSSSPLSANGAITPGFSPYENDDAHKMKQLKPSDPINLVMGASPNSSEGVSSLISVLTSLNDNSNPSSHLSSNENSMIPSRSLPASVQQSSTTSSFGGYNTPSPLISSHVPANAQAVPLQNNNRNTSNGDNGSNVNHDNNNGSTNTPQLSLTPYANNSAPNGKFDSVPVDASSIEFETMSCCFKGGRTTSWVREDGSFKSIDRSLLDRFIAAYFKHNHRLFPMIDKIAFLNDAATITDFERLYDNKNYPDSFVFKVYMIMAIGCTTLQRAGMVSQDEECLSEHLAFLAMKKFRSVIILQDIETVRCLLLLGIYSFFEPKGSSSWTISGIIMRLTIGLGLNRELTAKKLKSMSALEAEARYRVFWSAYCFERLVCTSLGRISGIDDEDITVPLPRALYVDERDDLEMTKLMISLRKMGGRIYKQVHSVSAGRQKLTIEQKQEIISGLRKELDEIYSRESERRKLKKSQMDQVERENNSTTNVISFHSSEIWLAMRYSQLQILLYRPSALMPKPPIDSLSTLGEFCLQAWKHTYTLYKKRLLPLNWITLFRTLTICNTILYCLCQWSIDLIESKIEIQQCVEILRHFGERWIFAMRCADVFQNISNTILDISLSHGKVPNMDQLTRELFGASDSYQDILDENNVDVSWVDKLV
Experiment: PBM E-score (8-mer binding enrichment) (E-score (-0.5 to 0.5)); higher = stronger / more preferred TF binding; most listed sequences are background and not binding sites
Settings: protein concentration: 200 nM; construct: GST-full length
How it was run: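 GST-tagged yeast TFs (full-length or DNA-binding domain) were made by PURExpress in vitro transcription/translation and applied at about 100-200 nM to universal all-10-mer Agilent arrays. The arrays were made double-stranded by primer extension, on fresh or once-stripped slides. Bound protein was detected with fluorescent anti-GST, and scans were normalised with masliner. Each ungapped eight-base word, pooled with its reverse complement, received an E-score (modified Wilcoxon-Mann-Whitney statistic) from the Universal PBM Analysis Suite.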

| Sequence | PBM E-score |
| --- | --- |
| ATCTACTG | -0.012 |
| GCACGTTA | -0.0204 |
| ACCGACGT | 0.355 |
| CATTCACA | -0.296 |
| ACTTGCTC | -0.251 |
| CTCTTCTC | -0.0917 |
| CCCAGGCG | 0.0265 |
| ACCATAAT | -0.102 |
| CATGTTTA | -0.0394 |
| AAATGCAG | -0.295 |
| GCGCCATA | 0.0695 |
| AGTTTGCA | -0.125 |
| TCAGGGAA | -0.124 |
| TCTTGCCA | -0.162 |
| CACAGATC | -0.0333 |
| AATGGGTC | -0.0706 |
| CGTCGTAA | -0.114 |
| CCGATCCC | 0.266 |
| AAGATTGG | -0.201 |
| GGCACGAC | -0.0677 |
| AAATTCTG | -0.107 |
| ACCTAGTG | -0.0726 |
| CAACTTCC | -0.0598 |
| AGAGACTA | -0.0204 |
| CACAGCTC | -0.255 |

| Sequence | PBM E-score |
| --- | --- |
| ACTGTGAA | -0.0488 |
| GGTGAGAA | 0.127 |
| CAAGGCGA | -0.157 |
| CACTTGCA | -0.14 |
| ACTCGATC | -0.191 |
| CAGTTACG | -0.0602 |
| TCCAGAAA | -0.0169 |
| ATGCTATC | -0.00518 |
| CTAAGTGA | -0.0682 |
| CTCCGGAG | 0.283 |
| GACTTAGA | -0.211 |
| ACATTGAG | 0.0192 |
| TCCGCGGA | 0.144 |
| TTACATAA | 0.0508 |
| CACCCTTC | -0.22 |
| CAACAAAA | -0.122 |
| AGGAAACG | -0.031 |
| TGAGGCAA | -0.322 |
| CCCGTAAC | 0.208 |
| ACTCTATG | -0.0372 |
| ACGGTCAG | -0.0787 |
| AGGGTCCA | -0.021 |
| AGTCAAAT | -0.164 |
| ATGATAGG | -0.25 |
| GCATACGC | -0.0349 |

| Sequence | PBM E-score |
| --- | --- |
| AGCAGTAA | -0.155 |
| GTGGTTTA | 0.143 |
| CAGAGCGA | -0.00058 |
| AGGGGCGA | -0.0945 |
| TTATTCAA | 0.0979 |
| AACCCTCG | -0.271 |
| CCTCGCAA | -0.0385 |
| ACATCTAA | -0.18 |
| GCGCGCCA | 0.174 |
| ATCTGAGG | -0.107 |
| CGACCCAA | -0.125 |
| GAATTGTC | -0.118 |
| CTCCCGCC | 0.0573 |
| ACGTTCTC | -0.279 |
| AGCAGAGG | -0.278 |
| CGCTTCAC | 0.0234 |
| GGGGAACA | 0.0315 |
| ATACCCGA | 0.273 |
| ACTCTTGC | -0.237 |
| AGAGTAGG | -0.0274 |
| ATCAAATA | -0.0163 |
| ATGTTTTC | -0.0766 |
| GATGTGCA | -0.236 |
| CAAGAACG | -0.0853 |
| ATGGTTGC | -0.259 |

| Sequence | PBM E-score |
| --- | --- |
| ATGACGTA | -0.183 |
| ATCCTAAT | -0.0455 |
| ATCATCTA | -0.0932 |
| ACCCAGCA | 0.0438 |
| CATTGGCG | -0.0195 |
| ATAGTGAC | -0.131 |
| CACCCAGA | -0.183 |
| CCTTGTTC | -0.176 |
| GCAGCGAA | -0.0521 |
| AGGAACAG | -0.305 |
| CTACAGAC | -0.0433 |
| ATTCTAGG | -0.169 |
| CACTATAC | -0.101 |
| GGAGACAC | 0.0843 |
| AATGTGTA | -0.183 |
| AGGGACGG | 0.253 |
| CGCCGCGC | 0.368 |
| GAGTGAAC | -0.0964 |
| TATCGCAA | -0.173 |
| CAGAAGCC | 0.0903 |
| ACTTAACA | -0.168 |
| ACAAAGCA | -0.0624 |
| AGCTCACG | -0.232 |
| CGCTACAC | -0.0399 |
| ATACCTGC | -0.0872 |

| Sequence | PBM E-score |
| --- | --- |
| CGAGACAA | -0.264 |
| CCATTCAA | -0.227 |
| AGCTAATG | -0.274 |
| ATCGTAAT | -0.0644 |
| CTTTATCA | -0.127 |
| GCAGCGCA | -0.0467 |
| CACAACTC | -0.023 |
| AAACGCCC | 0.22 |
| ATGCATCA | -0.223 |
| GCATCTCA | -0.205 |
| CAAACAAG | -0.0162 |
| ATACAAGG | -0.0423 |
| CAAAGGGG | -0.134 |
| AGATTCAG | -0.128 |
| CCTAGGCC | -0.0439 |
| ACTCTCCT | -0.329 |
| AGCCAGCG | -0.141 |
| CGGAGTGA | 0.391 |
| ACTCTCTA | -0.205 |
| AATGTCAG | -0.128 |
| CAAAGATC | -0.0177 |
| GCCGACGC | 0.316 |
| ACCGGCAA | 0.241 |
| GACGACAC | 0.145 |
| CAGATGAA | -0.316 |

| Sequence | PBM E-score |
| --- | --- |
| AACAGCCG | 0.105 |
| ACAGCATA | -0.0871 |
| AGTTTACC | 0.0921 |
| ATCGAAAA | -0.0502 |
| CAGAAACG | 0.106 |
| GCGTCACC | -0.0626 |
| AACCTTCC | -0.135 |
| CTGAAATA | -0.0506 |
| TAATTACA | -0.0745 |
| AAAGTTTA | 0.072 |
| GATGAAAC | -0.00312 |
| CGGGCGCA | 0.231 |
| GGTTTACA | 0.0237 |
| AAGGCCTG | -0.0882 |
| AGCGAATG | -0.223 |
| ACCATACG | -0.0751 |
| AGCGGGGC | 0.356 |
| ATTAGCTG | -0.119 |
| AAACATGC | -0.228 |
| AGTAACGC | -0.00333 |
| CCATAAGA | -0.0498 |
| GAACTAGC | 0.0562 |
| CTCATGAG | -0.34 |
| GCTTCAGA | -0.182 |
| ATCCAAAA | -0.0416 |

| Sequence | PBM E-score |
| --- | --- |
| CTTAAAAC | 0.115 |
| CATTAAAG | -0.133 |
| CGCTAGAC | 0.0457 |
| CGCCGGCG | 0.428 |
| ACAACACC | 0.197 |
| AATCGGGT | 0.132 |
| CAGTCGTA | -0.0825 |
| GAAGTACC | 0.198 |
| GTCTCGCA | -0.146 |
| GAAATAGA | 0.0305 |
| GGCCCCCC | -0.0669 |
| AAAGTACC | 0.195 |
| TATAGAAA | -0.0297 |
| CCTCCGCG | 0.157 |
| AGACCGTC | 0.252 |
| ACATAGGC | -0.086 |
| ATAGCCAC | -0.171 |
| CTTCTACC | -0.133 |
| CCGATGTA | 0.242 |
| CTGCGGGC | 0.249 |
| CTGCGGCC | 0.218 |
| GTTCGCAA | -0.133 |
